# Source: PubChem BioAssay (Tox21)
# Where “and” joins values, the source holds several entries; their conditions need not be identical. Equal values may be shown once. Inconclusive means that the source gave no clear call. Such entries were picked first, then a sample of the others. Where the call is inconclusive, the potency comes from a doubtful curve fit. Calls of active or inactive are those of the source. Calls follow the shape of the dose curve; as a rule, active = well fitted curve in the direction sought with a large enough effect in the repeat runs; inconclusive = weak or mixed curves; inactive = no such curve, though single readings can be large; an effect the other way counts as inactive or inconclusive.
# Tests used:
# [1] = biological target: Cytochrome P450 1A2 (Homo sapiens) (UniProt P05177); experiment: Cytochrome P450 Family 1 Subfamily A Member 2 (CYP1A2) small molecule antagonists: luciferase reporter qHTS assay (AID 1671199)
# Method in brief: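 P450-Glo CYP1A2, 1536-well qHTS: enzyme/proluciferin substrate + cpd (DMSO), 10 min RT; NADPH regen, 1 h RT; detection reagent, 20 min; luminescence, RLU.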
# [2] = biological target: Cytochrome P450 2C9 (Homo sapiens) (UniProt P11712); experiment: Cytochrome P450 Family 2 Subfamily C Member 9 (CYP2C9) small molecule antagonists: luciferase reporter qHTS assay (AID 1671198); as to activity change, negative = inhibition: series mostly up to about 120 µM; % is scaled to controls: 0 for no effect and ±100 for the full control effect
# Method in brief: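 CYP2C9 activity was measured with a P450-Glo proluciferin substrate. Enzyme–substrate mix was held with compound for 10 min at room temperature, then NADPH regeneration solution was added for 1 h at 37C. Luciferin product was read as luminescence.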
# [3] = biological target: Voltage-gated inwardly rectifying potassium channel KCNH2 (Homo sapiens) (UniProt Q12809); experiment: Human Ether-a-go-go-Related Gene (hERG) channel small molecule antagonists: fluorescence cell-based qHTS assay (AID 1671200);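 as to activity change, negative = inhibition: hERG-expressing U2OS cells given a thallium stimulus after FluxOR II dye loading; series mostly up to about 77 µM; % is scaled to controls: 0 for no effect and ±100 for the full control effect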
# Method in brief: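 hERG-U2OS cells plated overnight at 37 C, loaded with FluxOR II dye 1 h at RT in dark; after 10 min, thallium stimulus added. Fluorescence (480/540 nm) read kinetically for 2 min at 1 s intervals.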
# [4] = biological target: Cytochrome P450 3A4 (Homo sapiens) (UniProt P08684); experiment: Cytochrome P450 Family 3 Subfamily A Member 4 (CYP3A4) small molecule antagonists: luciferase reporter qHTS assay (AID 1671201); as to activity change, negative = inhibition: series mostly up to about 120 µM; % is scaled to controls: 0 for no effect and ±100 for the full control effect
# Method in brief: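 P450-Glo CYP3A4 luminescent assay: compounds preincubated 10 min at room temperature with enzyme and proluciferin substrate, NADPH regeneration added, 1 h room-temperature reaction, stopped with luciferin detection reagent; luminescence read after 20 min. Ketoconazole positive control.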
# Also: nearly all actives have a fitted effect of over 50% in size.
# Potency is read from the fitted curve at half-maximal effect; tags tell the direction and shape of the fitted curve.
# Sequence of UniProt P05177 (P05177 whole entry, looked up): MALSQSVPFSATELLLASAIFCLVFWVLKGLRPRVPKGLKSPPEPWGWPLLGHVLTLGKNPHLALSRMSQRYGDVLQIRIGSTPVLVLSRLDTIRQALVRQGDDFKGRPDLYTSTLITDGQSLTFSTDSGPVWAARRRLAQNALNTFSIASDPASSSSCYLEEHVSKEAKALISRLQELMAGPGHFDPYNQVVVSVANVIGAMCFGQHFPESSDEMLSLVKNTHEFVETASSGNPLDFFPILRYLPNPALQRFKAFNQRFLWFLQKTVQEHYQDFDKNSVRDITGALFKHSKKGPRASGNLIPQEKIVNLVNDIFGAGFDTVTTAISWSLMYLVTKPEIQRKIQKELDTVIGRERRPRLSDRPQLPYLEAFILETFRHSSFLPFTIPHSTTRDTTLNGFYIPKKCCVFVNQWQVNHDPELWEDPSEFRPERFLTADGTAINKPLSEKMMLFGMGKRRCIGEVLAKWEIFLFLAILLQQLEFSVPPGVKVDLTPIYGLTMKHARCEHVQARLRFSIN
# Sequence of UniProt Q12809 (Q12809 whole entry, looked up): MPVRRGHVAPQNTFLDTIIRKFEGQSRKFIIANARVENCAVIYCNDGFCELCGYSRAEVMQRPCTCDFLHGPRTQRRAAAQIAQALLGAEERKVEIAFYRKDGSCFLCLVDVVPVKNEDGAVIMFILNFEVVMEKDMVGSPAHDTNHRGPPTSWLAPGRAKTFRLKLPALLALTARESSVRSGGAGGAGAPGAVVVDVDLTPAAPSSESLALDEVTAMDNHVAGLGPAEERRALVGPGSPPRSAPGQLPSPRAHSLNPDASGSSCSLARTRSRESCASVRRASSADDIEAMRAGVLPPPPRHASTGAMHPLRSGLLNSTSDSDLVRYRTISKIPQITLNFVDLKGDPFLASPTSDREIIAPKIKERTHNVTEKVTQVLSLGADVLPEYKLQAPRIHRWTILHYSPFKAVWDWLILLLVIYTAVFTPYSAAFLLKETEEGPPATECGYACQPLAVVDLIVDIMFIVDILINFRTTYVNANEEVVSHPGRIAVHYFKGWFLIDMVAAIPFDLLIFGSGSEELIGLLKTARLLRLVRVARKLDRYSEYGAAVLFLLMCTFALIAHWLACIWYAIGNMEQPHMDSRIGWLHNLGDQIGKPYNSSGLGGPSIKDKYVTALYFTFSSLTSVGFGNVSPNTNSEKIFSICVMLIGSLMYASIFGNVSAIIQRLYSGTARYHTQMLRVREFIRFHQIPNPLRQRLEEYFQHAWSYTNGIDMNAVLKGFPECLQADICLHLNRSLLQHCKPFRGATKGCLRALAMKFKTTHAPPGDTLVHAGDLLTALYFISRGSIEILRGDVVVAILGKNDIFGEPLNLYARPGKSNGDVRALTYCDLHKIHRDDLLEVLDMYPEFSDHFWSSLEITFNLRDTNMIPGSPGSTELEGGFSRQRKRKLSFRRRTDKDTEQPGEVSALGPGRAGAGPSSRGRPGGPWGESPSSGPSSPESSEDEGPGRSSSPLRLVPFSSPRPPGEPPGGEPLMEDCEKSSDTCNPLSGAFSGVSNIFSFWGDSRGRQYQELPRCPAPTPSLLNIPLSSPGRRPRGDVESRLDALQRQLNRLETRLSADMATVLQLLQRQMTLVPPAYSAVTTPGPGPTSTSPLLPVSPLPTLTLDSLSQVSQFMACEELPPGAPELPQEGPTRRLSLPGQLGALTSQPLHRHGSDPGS
# Sequence of UniProt P08684 (P08684 whole entry, looked up): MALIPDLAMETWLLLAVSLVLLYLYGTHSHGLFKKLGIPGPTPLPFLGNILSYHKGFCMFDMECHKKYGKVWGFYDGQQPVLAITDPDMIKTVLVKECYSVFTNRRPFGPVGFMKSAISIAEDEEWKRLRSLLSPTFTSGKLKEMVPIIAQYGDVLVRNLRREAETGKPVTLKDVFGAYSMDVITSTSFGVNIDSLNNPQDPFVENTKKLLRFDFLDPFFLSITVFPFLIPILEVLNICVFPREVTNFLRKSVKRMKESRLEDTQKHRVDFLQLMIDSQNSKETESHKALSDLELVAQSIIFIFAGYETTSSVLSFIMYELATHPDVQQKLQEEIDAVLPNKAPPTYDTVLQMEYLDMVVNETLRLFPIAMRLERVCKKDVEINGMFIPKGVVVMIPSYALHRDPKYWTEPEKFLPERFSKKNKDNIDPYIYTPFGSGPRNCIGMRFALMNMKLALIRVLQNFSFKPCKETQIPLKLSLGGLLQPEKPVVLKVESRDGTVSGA
# Sequence of UniProt P11712 (P11712 whole entry, looked up): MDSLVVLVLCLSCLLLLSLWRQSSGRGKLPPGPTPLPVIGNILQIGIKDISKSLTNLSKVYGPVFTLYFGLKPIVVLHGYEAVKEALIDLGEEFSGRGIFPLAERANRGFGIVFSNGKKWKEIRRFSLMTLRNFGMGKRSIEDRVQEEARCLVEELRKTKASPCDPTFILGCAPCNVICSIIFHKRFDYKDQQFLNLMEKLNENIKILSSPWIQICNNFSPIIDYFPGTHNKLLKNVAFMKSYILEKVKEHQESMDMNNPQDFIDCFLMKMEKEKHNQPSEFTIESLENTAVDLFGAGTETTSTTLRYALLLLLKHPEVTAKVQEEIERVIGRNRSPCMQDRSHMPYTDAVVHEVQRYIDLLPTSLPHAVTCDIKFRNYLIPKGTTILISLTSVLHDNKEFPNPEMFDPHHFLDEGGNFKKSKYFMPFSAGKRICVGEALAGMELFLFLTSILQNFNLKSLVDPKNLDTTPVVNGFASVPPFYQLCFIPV
smiles,measurement,setting,value
O=C(CCl)Nc1ccccc1,Potency,[1],"inconclusive: 71 µM [inhibitor, partial curve]"
ClC1=C(Cl)[C@]2(Cl)[C@H]3[C@H]([C@H]4C=C[C@H]3C4)[C@@]1(Cl)C2(Cl)Cl,Potency,[2],"inconclusive: 31.7 µM [inhibitor, partial curve]"
same,Potency,[3],"inconclusive: 13.8 µM [inhibitor, full curve]"
Cn1cc(-c2ccccc2)c(=O)c(-c2cccc(C(F)(F)F)c2)c1,Potency,[1],active: 19.5 µM and active: 17.8 µM
CCCCCCCCCCCCN=C(N)N,"activity change, negative = inhibition",[2],inactive: -14.6% [at 4.07 µM]
same,"activity change, negative = inhibition",[4],inactive: 2.59% [at 4.07 µM]
Cc1cc2c3c(c1)C(c1ccccc1)=N[C@@H](NC(=O)c1ccncc1)C(=O)N3CC2,Potency,[1],"inconclusive: 63.3 µM [inhibitor, partial curve, poor fit]"
same,Potency,[3],"inconclusive: 24.5 µM [inhibitor, partial curve]"
CS/C(C)=N/OC(=O)N(C)SN(C)C(=O)O/N=C(\C)SC,Potency,[1],"inconclusive: 79.6 µM [inhibitor, single point]"
same,Potency,[3],"inconclusive: 38.9 µM [inhibitor, partial curve]"
N#CCNCC#N,Potency,[1],"inconclusive: 44.8 µM [inhibitor, partial curve, poor fit]"
same,Potency,[3],inactive
C#CCN1C(=O)COc2cc(F)c(N3C(=O)C4=C(CCCC4)C3=O)cc21,Potency,[1],active: 3.99 µM
same,Potency,[3],"inconclusive: 54.9 µM [inhibitor, single point]"
CC(C)=CC1C(C(=O)OCN2C(=O)C3=C(CCCC3)C2=O)C1(C)C (stereo unspecified),Potency,[1],"inconclusive: 71 µM [inhibitor, partial curve]"
same,Potency,[3],"inconclusive: 16.9 µM [inhibitor, partial curve]"
same,Potency,[4],"inconclusive: 63.3 µM [inhibitor, partial curve] and inconclusive: 30.9 µM [inhibitor, partial curve, poor fit]"
O=[N+]([O-])c1cc(C(F)(F)F)cc([N+](=O)[O-])c1Cl,Potency,[1],"inconclusive: 50.5 µM [inhibitor, partial curve]"
O=C1CN=C(c2ccccc2)c2cc(Cl)ccc2N1CC1CC1,Potency,[1],"inconclusive: 37.4 µM [inhibitor, partial curve]"
same,Potency,[3],inconclusive: 45.8 µM [inhibitor]
same,Potency,[4],"inconclusive: 26.4 µM [inhibitor, partial curve]"
